Reference: PubChem BioAssay (Tox21)
Values joined by “and” are separate entries in the source; they are usually repeats but may differ in a detail not shown here. Equal values may be shown once. Inconclusive means that the source gave no clear call. Such entries were picked first, then a sample of the others. For some of these results: A potency beside an inconclusive call is a rough fit, not a confirmed value. The source holds several records for some structures; these can differ, active in one and inactive in another. Active and inactive are the calls of the source. Unless noted, calls come from the whole dose curve; as a rule, active = well fitted curve in the direction sought with a large enough effect in the repeat runs; inconclusive = weak or mixed curves; inactive = no such curve, though single readings can be large; an effect the other way counts as inactive or inconclusive.

What was measured:
[1] = Caspase-3/7 induction in HepG2 cells by small molecules, qHTS cell viability counter screen (AID 1346981); note: nearly all actives have a fitted effect of over 30% in size; note: potency is the fitted concentration of half-maximal effect
Summary of the method: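 Multiplexed with the caspase-3/7 assay: HepG2 cells, 16 hr compound treatment, CellTiter-Fluor viability detection by fluorescence.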

[2] = biological target: Nuclear receptor subfamily 1 group I member 2 (Homo sapiens) (UniProt O75469); test: Human pregnane X receptor (PXR) small molecule agonists, qHTS assay (AID 1346982); note: nearly all actives have a fitted effect of over 35% in size; note: potency is the fitted concentration of half-maximal effect; for activation: % is set by controls: 0 for no effect and ±100 for the full control effect
Summary of the method: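 We seeded PXR-Luc HepG2 cells in assay medium containing 5% charcoal-stripped FBS, added compounds 5 hr later, incubated 24 hr, and read luminescence with ONE-Glo reagent.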

[3] = biological target: Cytochrome P450 2C19 (Homo sapiens) (UniProt P33261); test: Cytochrome P450 Family 2 Subfamily C Member 19 (CYP2C19) small molecule antagonists: luciferase reporter qHTS assay (AID 1671197); note: nearly all actives have a fitted effect of over 65% in size; note: potency is the fitted concentration of half-maximal effect
Summary of the method: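 P450-Glo CYP2C19 screening system; proluciferin substrate; DMSO compound stocks; 10 min RT preincubation; NADPH regeneration, 1 h at 37C; luciferin detection reagent, 20 min RT; luminescence as RLU.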

[4] = Caspase-3/7 induction in CHO-K1 cells by small molecules, qHTS cell viability counter screen (AID 1346979); note: nearly all actives have a fitted effect of over 35% in size; note: potency is the fitted concentration of half-maximal effect
Summary of the method: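 In the same wells as the caspase read, viability of compound-treated wild-type CHO-K1 cells was assessed using CellTiter-Fluor, added after 16hr at 37C and measured by fluorescence following 1hr further incubation.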

[5] = biological target: Cytochrome P450 2D6 (Homo sapiens) (UniProt P10635); test: Cytochrome P450 Family 2 Subfamily D Member 6 (CYP2D6) small molecule antagonists: luciferase reporter qHTS assay (AID 1671196); note: nearly all actives have a fitted effect of over 50% in size; note: potency is the fitted concentration of half-maximal effect
Summary of the method: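 Luminescence (RLU), read 20 min after detection reagent, indicated CYP2D6 conversion of proluciferin to luciferin during a 1 h NADPH-dependent reaction at room temperature.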

[6] = biological target: Acetylcholinesterase (Homo sapiens) (UniProt P22303); test: Acetylcholinesterase (AChE) small molecule antagonists: colormetric cell-based qHTS assay (AID 1347395; calls by dose curve; note: nearly all actives have a fitted effect of over 30% in size; note: potency is the fitted concentration of half-maximal effect)
Summary of the method: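 Endogenous AChE of human neuroblastoma SH-SY5Y cells was measured with an Ellman-type DTNB/acetylthiocholine mix. Compound pretreatment lasted 30 min at 37 C; substrate reaction ran 90 min at 37 C.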

[7] = biological target: Acetylcholinesterase (Homo sapiens) (UniProt P22303); test: Acetylcholinesterase (AChE) small molecule antagonists: enzyme-based qHTS assay (AID 1347397; calls by dose curve; note: potency is the fitted concentration of half-maximal effect; nearly all actives have a fitted effect of over 55% in size); settings: Potency: AChE enzyme activity inhibition
Summary of the method: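 Recombinant human AChE (50 mU/mL) preincubated with compound 30 min at room temperature; acetylthiocholine plus DTNB then added, and thiocholine formation read colorimetrically after 10 min at room temperature. DMSO served as vehicle control.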

[8] = biological target: Acetylcholinesterase (Homo sapiens) (UniProt P22303); test: Acetylcholinesterase (AChE) small molecule antagonists: fluorescence cell-based qHTS assay (AID 1347398; calls by dose curve; note: nearly all actives have a fitted effect of over 50% in size; note: potency is the fitted concentration of half-maximal effect); settings: Potency: AChE activity
Summary of the method: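 SH-SY5Y cells (2000/well), attached overnight, incubated with compound 30 min at 37 C. Acetylthiocholine plus Thiolite Green then added for 40 min at room temperature. Thiocholine fluorescence (Ex/Em 490/520 nm) reports cellular AChE activity.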

[9] = Caspase-3/7 induction in CHO-K1 cells by small molecules, qHTS assay (AID 1346980); note: % is set by controls: 0 for no effect and ±100 for the full control effect; nearly all actives have a fitted effect of over 15% in size
Summary of the method: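 Wild-type CHO-K1 cells exposed to compounds for 17hr at 37 C, 5% CO2. Caspase-3/7 activity then measured by Caspase-Glo 3/7 luminescence after 30min at room temperature.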

[10] = biological target: Acetylcholinesterase (Homo sapiens) (UniProt P22303); test: Acetylcholinesterase (AChE) small molecule antagonists: enzyme-based qHTS assay with human liver microsomes (AID 1347399; calls by dose curve; note: % is set by controls: 0 for no effect and ±100 for the full control effect; nearly all actives have a fitted effect of over 60% in size); settings: Potency: qHTS inhibition
Summary of the method: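 Recombinant human AChE (50 mU/mL in the enzyme mix) and human liver microsomes (0.25 mg/mL final) were preincubated with compound and NADPH (0.25 mg/mL final) for 30 min at 37 C. Acetylthiocholine/DTNB was then added; thiocholine was read colorimetrically after 10 min at room temperature.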

[11] = biological target: Nuclear receptor subfamily 1 group I member 2 (Homo sapiens) (UniProt O75469); test: Human pregnane X receptor (PXR) activation by small molecules, qHTS assay (AID 1346985); note: nearly all actives have a fitted effect of over 40% in size; note: potency is the fitted concentration of half-maximal effect; for activation: % is set by controls: 0 for no effect and ±100 for the full control effect
Summary of the method: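 DPX-2 cells (HepG2 co-transfected with a PXR response element and a CYP3A4-promoter luciferase construct) were seeded at 2,000 per well, rested 5 hr at 37C, then exposed to DMSO-dissolved compounds for 24 hr. Activation was read as luciferase luminescence.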

[12] = biological target: Nuclear receptor subfamily 1 group I member 2 (Rattus norvegicus) (UniProt Q9R1A7); test: Rat pregnane X receptor (rPXR) activation by small molecules, qHTS assay (AID 1346983); settings: rPXR luciferase reporter cells, One-Glo luminescence, 24 h; max activation: stronger effect = higher value; note: % is set by controls: 0 for no effect and ±100 for the full control effect; nearly all actives have a fitted effect of over 20% in size
Summary of the method: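 Cell-based rPXR activation assay: rPXR cells, 2,000 per well, rested 5hr at 37 C, then exposed to compounds in DMSO for 24 hr at 37 C. Luciferase activity read by One-Glo luminescence after 30 min at room temperature.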
Tags give direction and shape of the fitted curve.

UniProt P10635, sequence (P10635 whole entry, looked up): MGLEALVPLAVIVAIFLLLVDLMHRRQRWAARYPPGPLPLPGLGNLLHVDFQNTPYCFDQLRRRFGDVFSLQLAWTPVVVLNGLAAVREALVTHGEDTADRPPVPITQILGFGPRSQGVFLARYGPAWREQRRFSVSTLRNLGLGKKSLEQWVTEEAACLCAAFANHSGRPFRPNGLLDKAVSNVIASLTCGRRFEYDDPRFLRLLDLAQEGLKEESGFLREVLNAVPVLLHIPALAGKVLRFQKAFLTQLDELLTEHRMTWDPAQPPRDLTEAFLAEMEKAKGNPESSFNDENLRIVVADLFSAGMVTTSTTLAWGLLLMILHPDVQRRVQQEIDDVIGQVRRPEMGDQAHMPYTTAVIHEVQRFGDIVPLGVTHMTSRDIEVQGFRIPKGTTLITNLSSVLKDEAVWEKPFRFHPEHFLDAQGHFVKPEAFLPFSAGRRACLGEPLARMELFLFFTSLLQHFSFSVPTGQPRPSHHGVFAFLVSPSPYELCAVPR
UniProt P33261, sequence (P33261 whole entry, looked up): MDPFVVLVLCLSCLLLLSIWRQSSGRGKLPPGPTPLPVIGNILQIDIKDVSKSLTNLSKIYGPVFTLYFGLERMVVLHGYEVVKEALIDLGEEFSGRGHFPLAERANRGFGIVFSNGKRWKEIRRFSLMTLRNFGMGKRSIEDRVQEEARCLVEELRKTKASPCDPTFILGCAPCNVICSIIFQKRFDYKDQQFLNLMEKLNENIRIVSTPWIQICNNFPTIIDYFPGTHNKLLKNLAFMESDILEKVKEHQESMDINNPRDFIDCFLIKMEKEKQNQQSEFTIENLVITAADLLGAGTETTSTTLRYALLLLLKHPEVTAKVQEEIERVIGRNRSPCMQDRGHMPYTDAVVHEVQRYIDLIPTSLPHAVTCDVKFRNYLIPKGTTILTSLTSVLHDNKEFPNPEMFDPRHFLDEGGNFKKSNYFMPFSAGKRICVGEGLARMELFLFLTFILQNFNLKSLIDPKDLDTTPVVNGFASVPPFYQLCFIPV
UniProt P22303, sequence (P22303 whole entry, looked up): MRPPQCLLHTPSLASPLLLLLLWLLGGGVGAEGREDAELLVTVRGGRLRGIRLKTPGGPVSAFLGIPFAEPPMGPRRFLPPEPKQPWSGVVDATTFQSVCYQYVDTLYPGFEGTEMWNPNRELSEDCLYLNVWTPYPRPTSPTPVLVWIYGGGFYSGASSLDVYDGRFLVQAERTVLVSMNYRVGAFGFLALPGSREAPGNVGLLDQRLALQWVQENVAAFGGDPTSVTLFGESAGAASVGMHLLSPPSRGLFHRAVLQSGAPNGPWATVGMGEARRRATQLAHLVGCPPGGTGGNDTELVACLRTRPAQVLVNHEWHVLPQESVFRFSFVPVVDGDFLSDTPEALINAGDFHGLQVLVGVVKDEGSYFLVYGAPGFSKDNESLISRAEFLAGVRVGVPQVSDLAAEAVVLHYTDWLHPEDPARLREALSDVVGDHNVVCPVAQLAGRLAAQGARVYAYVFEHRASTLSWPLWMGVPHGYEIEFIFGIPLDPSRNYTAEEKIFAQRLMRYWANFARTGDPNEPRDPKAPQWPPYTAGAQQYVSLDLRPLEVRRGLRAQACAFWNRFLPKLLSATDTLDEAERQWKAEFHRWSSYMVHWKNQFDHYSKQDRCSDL
UniProt Q9R1A7, sequence (Q9R1A7 whole entry, looked up): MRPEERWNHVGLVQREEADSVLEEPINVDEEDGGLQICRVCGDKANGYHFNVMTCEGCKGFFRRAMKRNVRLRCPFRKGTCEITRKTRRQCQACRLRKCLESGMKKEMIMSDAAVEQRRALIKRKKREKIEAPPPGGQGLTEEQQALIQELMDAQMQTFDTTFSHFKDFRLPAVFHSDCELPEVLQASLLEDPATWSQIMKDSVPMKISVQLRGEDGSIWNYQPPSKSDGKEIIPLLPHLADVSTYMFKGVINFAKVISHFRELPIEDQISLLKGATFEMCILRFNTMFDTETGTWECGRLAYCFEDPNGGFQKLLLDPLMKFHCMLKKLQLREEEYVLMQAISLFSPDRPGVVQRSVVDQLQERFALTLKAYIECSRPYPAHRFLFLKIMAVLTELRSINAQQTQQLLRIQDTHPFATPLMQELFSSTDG

NC(=O)CI
Potency [1]: inactive | Potency [2]: active: 69.1 µM

C[C@H]1C(=O)O[C@@H]2CCN3CC=C(COC(=O)[C@](C)(O)[C@]1(C)O)[C@H]23
Potency [1]: inactive | Potency [2]: inconclusive: 30.8 µM [activator, partial curve] | Potency [3]: inconclusive: 50.5 µM [inhibitor, partial curve, poor fit]

O=C(O)C(Br)(Br)Br
Potency [1]: inactive

Cc1cc(C(F)(C(F)(F)F)C(F)(F)F)ccc1NC(=O)c1cccc(I)c1C(=O)NC(C)(C)CS(C)(=O)=O
Potency [1]: inconclusive: 15.4 µM [rising, partial curve] | Potency [2]: active: 13.8 µM

CC(C)(OOC(C)(C)c1ccccc1)c1ccccc1
Potency [1]: inactive | Potency [2]: inconclusive: 53.7 µM [activator, partial curve]

O=S(=O)(O)O
Potency [1]: inconclusive: 21.7 µM [rising, partial curve]

CO[C@@H]1[C@H](OC(=O)NC(=O)CCl)CC[C@]2(CO2)[C@H]1[C@@]1(C)O[C@@H]1CC=C(C)C
Potency [4]: inconclusive: 21.1 µM [cytotoxic] | Potency [3]: active: 21.8 µM

CN(C)c1ccccc1
Potency [1]: inactive

Cc1ccc(N)cc1
Potency [1]: inconclusive: 77 µM [rising, single point] | Potency [5]: inconclusive: 61.2 µM [inhibitor, partial curve, poor fit]

CCCCc1ccccc1
Potency [4]: inactive | Potency [3]: inactive

C=CCN(CC=C)C(=O)C(Cl)Cl
Potency [1]: inactive | Potency [2]: inconclusive: 64 µM [activator, partial curve, poor fit] and inactive | Potency [3]: inactive

CNC(=O)O/N=C(/CSC)C(C)(C)C
Potency [1]: inactive | Potency [2]: inconclusive: 27.3 µM [activator, partial curve, poor fit] | Potency [6]: active: 1.59 µM | Potency [7]: active: 1 µM | Potency [8]: active: 0.142 µM

COc1cc(CC(C)N)cc2c1OCO2 (stereo unspecified)
Potency [1]: inactive | Potency [6]: inactive | Potency [5]: active: 2.09 µM

Cc1cccc(N)c1
Potency [1]: inactive | Potency [5]: inconclusive: 28.3 µM [inhibitor, partial curve]

CC(C)CCCCCCOC(=O)c1ccccc1C(=O)OCCCCCCC(C)C
Potency [9]: inactive | Potency [3]: inconclusive: 79.6 µM [inhibitor, single point]

Cc1nn(-c2cc(NS(C)(=O)=O)c(Cl)cc2Cl)c(=O)n1C(F)F
Potency [4]: inactive | Potency [3]: inactive

O=[N+]([O-])c1ccc(CBr)cc1
Potency [4]: inactive | Potency [3]: inconclusive: 99 µM [inhibitor, partial curve, poor fit]

C=C(C)C#N
Potency [1]: inactive and inconclusive: 27.3 µM [cytotoxic, single point]

CCCC[N+]1(C)CCCCC1
Potency [6]: inconclusive: 71.2 µM [inhibitor, partial curve] [middle of 4 runs]

CC[C@@H](CO)NC(=O)[C@@H]1C=C2c3cccc4c3c(cn4C)C[C@H]2N(C)C1
Potency [6]: active: 2.45 µM | Potency [8]: active: 1.1 µM

O=C(CBr)Nc1ccc(Cl)cc1C(=O)c1ccccc1F
Potency [8]: inactive

O=S(=O)(c1ccc(Cl)cc1)c1cc(Cl)c(Cl)cc1Cl
Potency [10]: inactive

CN1C(=O)C(O)N=C(c2ccccc2)c2cc(Cl)ccc21 (stereo unspecified)
Potency [11]: inconclusive: 15.8 µM [activator, partial curve, poor fit] | Potency [6]: inactive

O=C(O)C(Cl)Cl
max activation [12]: inactive: -1.74% | Potency [5]: inconclusive: 63.3 µM [inhibitor, partial curve, poor fit]

N[C@@H]1C[C@H]1c1ccccc1
Potency [11]: inactive | Potency [5]: active: 27.5 µM

CC1=C2[C@H]3OC(=O)[C@@H](C)[C@@H]3CC[C@@]2(C)C=CC1=O
Potency [11]: active: 2.82 µM | Potency [5]: inconclusive: 34.7 µM [inhibitor, single point]

CC(C)c1c(CN(C)C(C)Cc2ccccc2)n(C)n(-c2ccccc2)c1=O (stereo unspecified)
Potency [6]: inconclusive: 34.7 µM [inhibitor, partial curve] | Potency [5]: inconclusive: 12.3 µM [inhibitor, partial curve] | Potency [3]: active: 6.92 µM

c1cc2c3c(cccc3c1)CC2
Potency [6]: active: 36.5 µM | Potency [5]: inactive

CC(C)NCC(O)c1ccccc1Cl (stereo unspecified)
Potency [11]: inconclusive: 12.6 µM [activator, single point] | Potency [5]: active: 7.76 µM

N#CCc1ccccc1
Potency [2]: inactive | Potency [5]: inconclusive: 40.9 µM [inhibitor, partial curve]

CCC[N+]1(C)CCCCC1
Potency [6]: inconclusive: 70.9 µM [inhibitor, partial curve, poor fit] and inconclusive: 80 µM [inhibitor, partial curve, poor fit] and inconclusive: 71.3 µM [inhibitor, partial curve, poor fit]
